{"source": "PubChem BioAssay AID686979", "about": "(National Center for Advancing Translational Sciences (NCATS), 2013)", "note": "Values joined by “and” are separate entries in the source; they are usually repeats but may differ in a detail not shown here. Equal values may be shown once. In all, about 420,000 compounds went through this assay and about 50,000 (12%) were called active. The inconclusive results got no clear call from the source; some entries with a clear call stand among them for comparison. Calls come from the whole dose curve; as a rule, active = well fitted inhibition curve with a large enough effect; inconclusive = small, poorly fitted or top-dose-only effect; inactive = flat fitted curve, though single readings scatter. Potencies of inconclusive entries are doubtful fits and often do not repeat. % is set by controls: 0 for no effect and ±100 for the full control effect; potency is the fitted concentration of half-maximal effect; tags give direction and shape of the fitted curve.", "data": [{"assay": "qHTS for Inhibitors of human tyrosyl-DNA phosphodiesterase 1 (TDP1): qHTS in cells in presence of CPT; note: nearly all actives have a fitted effect of over 55% in size", "details": "chicken DT40 Tdp1-/-;hTDP1 cells + 20 nM CPT, ATP luminescence, 48 h; activity change, negative = growth inhibition: at 46.2 µM (top of the series)", "method_in_brief": "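Chicken DT40 Tdp1-/- cells stably complemented with human TDP1 were seeded at 400 cells/well in medium containing 20 nM camptothecin, exposed to pin-transferred compounds, and grown at 37 °C for at least 48 hr. Viability was read as ATP luminescence.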", "values": [{"compound": "CCCCCc1c(-c2ccc(Cl)cc2)ncn1CCc1ccccc1OC", "Potency": "active: 8.2 µM"}, {"compound": "CCCCN(Cc1ccccc1)S(=O)(=O)c1c(N)n(C)c(=O)n(C)c1=O", "Potency": "inactive"}, {"compound": "O=C(NCCc1ccccc1)c1ccc(-c2ccccc2C(F)(F)F)o1", "Potency": "active: 9.2 µM"}, {"compound": "O=c1n(Cc2ccccc2Cl)c2sc3c(c2c2ncnn12)CCCC3", "Potency": "inconclusive: 25.9 µM [inhibitor, single point]"}, {"compound": "Cc1cccc(N(CC(=O)NC2CCCC2)C(=O)CCC(=O)Nc2cc(C)on2)c1", "Potency": "inactive"}, {"compound": "Cc1cc(C)c(S(=O)(=O)NCCn2c(C)cc3ccccc32)c(C)c1", "Potency": "inconclusive: 29.1 µM [inhibitor, single point]"}, {"compound": "CC(=O)c1ccc(OCc2cc(C(=O)N(C)CC3COc4ccccc4O3)no2)cc1", "note": "(stereo unspecified)", "Potency": "active: 10.3 µM"}, {"compound": "CCCCn1nnnc1C1(C)CCC(=O)N1Cc1cccc(F)c1", "note": "(stereo unspecified)", "Potency": "inactive"}, {"compound": "COc1ccc(NC(=O)Cn2c(=O)n(CCCCCC(=O)NCc3ccc4c(c3)OCO4)c(=O)c3sccc32)cc1Cl", "Potency": "inactive"}, {"compound": "O=C(Nc1cccc(C(=O)OCc2cc(=O)n3c4c(sc3n2)CCCC4)c1)c1ccc(Cl)cc1", "Potency": "inconclusive: 18.4 µM [inhibitor, single point]"}, {"compound": "CCSc1cc(N2CCCC2)nc(-c2ccccc2Cl)n1", "Potency": "inactive"}, {"compound": "CCOC(=O)c1c(C)oc2ccc(O)c(CN3CCCCC3)c12", "Potency": "inconclusive: 25.9 µM [inhibitor, single point]"}, {"compound": "CCCSc1oc(-c2cccs2)nc1S(=O)(=O)c1ccc(C)cc1", "Potency": "active: 18.4 µM"}, {"compound": "CS(=O)(=O)N1CCN(C(=O)C(Sc2ccccc2)c2ccccc2)CC1", "note": "(stereo unspecified)", "Potency": "inactive"}, {"compound": "Clc1cccc(Nc2nnc(-c3ccccc3)c3ccccc23)c1", "Potency": "inactive and inconclusive: 10.6 µM [inhibitor, partial curve, poor fit] and inconclusive: 22.4 µM [inhibitor, single point]"}, {"compound": "CCN(CC)C(=O)c1sc2c(c1C)c(=O)n(Cc1ccccc1)c(=O)n2Cc1cc(C)ccc1C", "Potency": "inconclusive: 18.4 µM [inhibitor, single point]"}, {"compound": "COc1ccc(C)cc1NC(=O)c1sc2nc(-c3ccc(F)cc3)cn2c1C", "Potency": "inactive"}, {"compound": "CCOc1cc(C(=O)OC(C)C(=O)Nc2ncc(Cl)cc2Cl)ccc1OCC(=O)N1CCOCC1", "note": "(stereo unspecified)", "activity change, negative = growth inhibition": "inconclusive: -33.7% [inhibitor]"}, {"compound": "C/C(=N\\Nc1nc(C)c(C)s1)c1ccc([N+](=O)[O-])cc1", "Potency": "inconclusive: 29.1 µM [inhibitor, single point]"}, {"compound": "O=C(CCN1C(=O)C2CCCCC2C1=O)Nc1nc2ccc(F)cc2s1", "note": "(stereo unspecified)", "Potency": "inactive"}, {"compound": "COc1ccc(-c2nc(SC)n(C)c(=O)c2C#N)cc1OC", "Potency": "inconclusive: 29.1 µM [inhibitor, single point]"}, {"compound": "CC(C)(C)OC(=O)NCCCCCNC(=O)c1[nH]cnc1C(=O)Nc1cccc(Cl)c1", "Potency": "inconclusive: 29.1 µM [inhibitor, single point]"}, {"compound": "COc1ccc(CCNC(=O)Cn2c(=O)n(CC3CCCO3)c(=O)c3ccccc32)cc1OC", "note": "(stereo unspecified)", "Potency": "inactive"}, {"compound": "O=C1c2cccc3c(O)ccc(c23)C(=O)N1c1ccc(Cl)cc1", "Potency": "inconclusive: 16.4 µM [inhibitor, single point]"}, {"compound": "N#CC1=C(N)C(C#N)(C#N)[C@H](c2c(F)cccc2F)[C@H]2CC3(CC=C12)OCCO3", "Potency": "inconclusive: 29.1 µM [inhibitor, single point]"}, {"compound": "CN(C)c1nc(NCc2ccccc2)nc(N/N=C/c2cccc(Br)c2)n1", "Potency": "active: 5.8 µM"}, {"compound": "c1ccc(-c2nc(NCc3cccnc3)c3oc4ccccc4c3n2)cc1", "Potency": "inconclusive: 18.4 µM [inhibitor, single point]"}, {"compound": "O=C(COc1ccc(Cl)cc1Cl)Nc1c(-c2cccs2)nc2ccccn12", "Potency": "inactive"}, {"compound": "COC(=O)c1ccc(NC(=S)NCCc2ccccc2)cc1", "Potency": "inconclusive: 25.9 µM [inhibitor, single point]"}, {"compound": "Cc1ccn2c(C=O)c(-c3ccc(F)cc3)c(C=O)c2c1", "Potency": "inactive"}, {"compound": "C1=Nc2ccccc2/C1=C/c1ccccc1", "Potency": "active: 4.47 µM"}, {"compound": "Cc1ccccc1-c1csc(C(O)c2cccc(Cl)c2)n1", "note": "(stereo unspecified)", "Potency": "inconclusive: 23.1 µM [inhibitor, single point]"}, {"compound": "FC(F)(F)c1nc2ccccc2nc1N/N=C/c1ccc(Cl)cc1", "Potency": "inconclusive: 16.4 µM [inhibitor, single point]"}, {"compound": "CCOC(=O)CN1C(=O)N[C@@H](CCc2ccccc2)[C@H](C(=O)OC)[C@H]1C", "Potency": "inactive"}, {"compound": "C[C@@H](C(=O)NC1CCCC1)N1C(=O)N2CCc3c([nH]c4ccccc34)[C@@]2(C)C1=O", "Potency": "active: 20.6 µM"}, {"compound": "OCCC1CN(Cc2ccc(C(F)(F)F)cc2)CCN1Cc1ccccc1", "note": "(stereo unspecified)", "Potency": "inconclusive: 20.6 µM [inhibitor, single point]"}, {"compound": "COc1ccc2c(c1OC)C(=O)N1c3ccccc3C(=O)N(c3ccc(F)cc3)C21", "note": "(stereo unspecified)", "Potency": "inconclusive: 10.3 µM [inhibitor, partial curve]"}, {"compound": "COc1ccccc1/C=C/c1nc2ccccc2[nH]1", "Potency": "inconclusive: 22.4 µM [inhibitor, single point]"}, {"compound": "COc1ccccc1NC(=O)c1sc(-c2ccc(Cl)cc2)cc1N", "Potency": "inconclusive: 29.1 µM [inhibitor, single point]"}, {"compound": "CC(C)C(NC(=O)CSCc1ccc([N+](=O)[O-])cc1)C(C)C", "Potency": "inconclusive: 29.1 µM [inhibitor, single point]"}, {"compound": "CCC[C@@H](CN[C@@H](CNC)C(C)C)NCCCCc1ccccc1", "Potency": "active: 1.03 µM"}, {"compound": "CC1(C)Oc2ccc3ccc(=O)oc3c2C(N2CCCCC2)C1O", "note": "(stereo unspecified)", "activity change, negative = growth inhibition": "inconclusive: -30.8% [inhibitor]"}, {"compound": "C[C@]12CC[C@H](O)CC1=CCC1C2CC[C@@]2(C)C1CC[C@@H]2NC(=O)[C@@H](N)Cc1cnc[nH]1", "note": "(stereo partly specified)", "Potency": "inactive"}, {"compound": "Cc1cnc(C(=O)OCC(=O)c2cccc3ccccc23)cn1", "Potency": "inconclusive: 29.1 µM [inhibitor, single point]"}, {"compound": "Cc1ccc(C(=O)N/C(=C/c2ccco2)C(=O)NCCCn2ccnc2)cc1", "Potency": "inactive"}, {"compound": "Cc1cc(C)c(NC(=O)CS(=O)CC(=O)N2CCN(c3ccc(F)cc3)CC2)c(C)c1", "note": "(stereo unspecified)", "Potency": "inconclusive: 35.5 µM [inhibitor, single point]"}]}]}
